Measured values as given in PubChem BioAssay (Tox21).
This list was built around the results that the source calls inconclusive (neither active nor inactive); the mix of calls is not that of the screen. A potency beside an inconclusive call is a rough fit, not a confirmed value. Active and inactive are the calls of the source. Calls come from the whole dose curve; as a rule, active = well fitted cell-killing curve with a large enough effect in the repeat runs; inconclusive = weak or mixed curves; inactive = no such curve, though single readings can be large or run the other way.

Test: qHTS assay for identifying genotoxic compounds that show differential cytotoxicity against isogenic chicken DT40 cell lines with known DNA damage response pathways - Rad54/Ku70 mutant cell line (AID 743015); note: nearly all actives have a fitted effect of over 60% in size
Details: DT40 Rad54/Ku70 mutant viability, CellTiter-Glo, 40 h; activity change, negative = cytotoxicity: at 66.8 µM (top of the series)
% is set by controls: 0 for no effect and ±100 for the full control effect; potency is the fitted concentration of half-maximal effect; tags give direction and shape of the fitted curve.

| SMILES | Potency | activity change, negative = cytotoxicity |
| --- | --- | --- |
| CN(C)Cc1cc(CN(C)C)c(O)c(CN(C)C)c1 | inactive | – |
| CCCCCCCCCCCCCCCCOS(=O)(=O)O | inconclusive: 23.7 µM [cytotoxic, partial curve, poor fit] | – |
| C=COCCOCCOCCOC=C | – | inconclusive: 14.9% |
| N[C@@H](Cc1c[nH]c2ccc(O)cc12)C(=O)O | inconclusive: 74.8 µM [cytotoxic, partial curve, poor fit] | – |
| CC(C)COC(=O)/C=C/c1ccccc1 | inconclusive: 43.3 µM [cytotoxic, partial curve, poor fit] | – |
| CN(C)C(=O)CNC(=O)Cc1ccccc1 | – | inactive: 0.68% |
| CC(C)c1ccc2oc3nc(N)c(C(=O)O)cc3c(=O)c2c1 | inconclusive: 33.5 µM [cytotoxic, single point] | – |
| CCN1CCN(c2cc3c(cc2F)c(=O)c(C(=O)O)cn3C2CC2)CC1 | inconclusive: 23.7 µM [cytotoxic, partial curve, poor fit] | – |
| CCCCCOC(=O)CCC | – | inactive: 8.9% |
| CC(=O)c1nccs1 | inconclusive: 56.4 µM [rising, partial curve, poor fit] | – |
| CO[Si](CCCn1c(=O)n(CCC[Si](OC)(OC)OC)c(=O)n(CCC[Si](OC)(OC)OC)c1=O)(OC)OC | inconclusive: 0.215 µM [rising, full curve, poor fit] | – |
| CCCCC(CC)CO (centres undefined) | inactive | – |
| CCCCCCCCOC(=O)CCCCCCCCC(=O)OCCCCCCCC | inconclusive: 68.6 µM [cytotoxic, single point] | – |
| Cn1cnc2c(=O)[nH]c(N)nc21 | active: 61.3 µM | – |
